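Exposure lasted 48 hours, with cells grown in 96-well plates and compounds tested at five concentrations. GI50 = concentration required for 50% inhibition of growth. TGI is the concentration that stops growth completely.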
Tested on: NCI-H322M lung
Experiment: growth of human tumour cells (NCI), 48 h

Row | Compound | GI50 [µM] | TGI [µM]
1 | O=C(COc1ccc(NC(=O)Nc2ccc(Cl)c(Cl)c2)cc1)N=Nc1c(O)[nH]c2ccc(Cl)cc12 | 2.47 | 5.9
2 | COCCOCCOCCOc1ccc(-n2cc(CCCN(CCNc3ccnc4cc(Cl)ccc34)C(=O)CCC(=O)O[C@@H]3O[C@@H]4OC5(C)CC[C@H]6[C@H](C)CC[C@@H]([C@H]3C)[C@@]46OO5)nn2)cc1 | > 10.3 | > 10.3

— PubChem BioAssay (NCI)
